This is one part of the list. These are further read-outs of the screen, such as a control signal, another cell line or another target. No call is given for them. The list favours compounds with an active or inconclusive main result.

The nature of the assay: beta-lactam sensitization of Mtb H37Rv, H37Rv (AID 434955).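 Note: growth measured after seven days incubation then overnight dye step; 0% = bacteria only wells and 100% = bacteria with antibiotic.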 To be noted: M. tuberculosis H37Rv growth with meropenem, percent inhibition; measured here: primary screen without meropenem; at 25 µM.
`COCCCn1c(SCC(=O)NC2CCCC2)nnc1-c1ccco1`: the inhibition (in general, the change of the read-out against control, counted positive when it falls) amounted to 0.98%.

For `CC(C)CC(NC(=O)C1CCC(C)CC1)C(=O)N1CCN(c2ccccn2)CC1` (centres undefined), the inhibition was -3.09%.

`COc1ccc2c(c1)CCc1c(C(=O)Nc3ccn(Cc4ccc(C)cc4)n3)noc1-2`: the inhibition turned out to be 6.29%.

With `O=C(Cn1c(=O)sc2ccccc21)Nc1ccc(S(=O)(=O)N2CCCC2)cc1`, the inhibition is 3.41%.

With `COC(=O)c1ccc(C)c(NC(=O)c2ccc(Cn3cc([N+](=O)[O-])cn3)o2)c1`, the inhibition was found to be 0.09%.

In the case of `Cc1ccc(/C=C(\NC(=O)c2ccccc2)C(=O)NCCN2CCOCC2)o1`, the inhibition is -5.9%.

As for `CCC(C)N1CCC(Oc2ccc(C(=O)NCc3ccccn3)cc2)CC1` (centres undefined), the inhibition was -0.98%.

`Cc1ccc2nc(NCCCO)[nH]c2c1`: the inhibition was determined as 1.38%.

Consider `CN(CC(=O)NCC1CCCO1)S(=O)(=O)c1ccc(Br)cc1` (centres undefined), for which the inhibition is -20.9%.

For the compound `Cc1ccc(C)c(SCC(=O)OCC(=O)N2CC(C)OC(C)C2)c1` (centres undefined), the inhibition is -0.59%.

As to `Cc1c(NC(=S)NC(=O)CSc2ccc(Cl)cc2)cccc1C(=O)O`, the inhibition is -5.52%.

With `Cc1ccc(OCc2cc(C(=O)N(C)CC3CCOCC3)no2)cc1C`, the inhibition was found to be 3.92%.

`O=C(C1Cc2ccccc2CN1S(=O)(=O)c1ccc(F)cc1)N1CCCCCC1` (centres undefined): the inhibition turned out to be 1.25%.

`COc1cccc(Nc2ccc(Nc3cccc(OC)c3)nn2)c1`: the inhibition came to 15.7%.

For the compound `CC(C)Oc1ccc(CNC(=O)CCC(=O)N2CC(C)Sc3ccccc32)cc1` (centres undefined), the inhibition is -4.94%.

Consider `COc1cc(/C=N/NC(=O)C(=O)N2CCCCCC2)ccc1O`, for which the inhibition was -5.14%.

As for `CCn1c(COc2ccccc2C)nnc1SCC(=O)N1CCC(C)CC1`, the inhibition is -4.67%.

Regarding `O=C(NC1(C(=O)NC2CCCCC2)CCCCC1)c1ccccn1`, the inhibition amounted to 8.84%.

As to `Cn1c(O)c(/C=C2/C=CC=N2)c(=O)[nH]c1=O`, the inhibition came out at 17.3%.

For `N#Cc1c(N)nc2c(c1-c1ccncc1)CCCCC2`, the inhibition is 11%.

Turning to `O=C(NCc1ccc2c(c1)OCO2)c1ccc(-n2cnnn2)cc1`, the inhibition was 1.25%.

`COc1ccccc1OCC(=O)NCC1CCCN(Cc2cnn(C(C)C)c2)C1` (centres undefined): the inhibition is 9.02%.

For `C/C=C/Cn1c(Br)nc2c1c(=O)[nH]c(=O)n2C`, the inhibition is -8.89%.

Turning to `CCOC(=O)c1c(NC(=O)CSc2ncn[nH]2)sc(C(=O)NC)c1C`, the inhibition was determined as 3.85%.

Consider `COCCN1C(=O)C(=O)/C(=C(/O)c2ccc(S(=O)(=O)N3CCCCC3)cc2)C1c1ccc(OC)c(OC)c1` (centres undefined), for which the inhibition was -6.65%.

In the case of `O=C(c1cc2ccccc2o1)N1CCN(S(=O)(=O)c2ccc(Cl)s2)CC1`, the inhibition was 96.3%.

Turning to `C/C(CC(=O)Nc1c(C)cc(C)cc1C)=N\NC(=O)c1cnccn1`, the inhibition was found to be 36%.

Turning to `O=S(=O)(Oc1ccccc1C(=S)N1CCOCC1)c1ccc(Cl)cc1`, the inhibition came out at 1.73%.

Consider `Cc1cc(NC(=O)C2C3C=CC(C3)C2C(=O)O)no1` (centres undefined), for which the inhibition stood at 1.96%.

As for `O=C(Nc1cccc(S(=O)(=O)NCc2ccco2)c1)c1cc(-c2ccc(F)cc2)nc2ccccc12`, the inhibition came to 27.7%.

With `CCc1nnc(NC(=O)CSc2nnc(-c3ccco3)n2C)s1`, the inhibition was -9.08%.

In the case of `COC1CCCN(Cc2c(C(=O)N3CCN(C4CCCCC4)CC3)nc3ccccn23)C1` (centres undefined), the inhibition is 5.2%.

On to `Cc1cc(C(=O)NC2CC(C)(C)Cc3c2cnn3-c2cccc(F)c2)nn1C` (centres undefined), for which the inhibition is -2.55%.

With `COc1ccc(C(=O)Nc2nnc(C3=COCCO3)o2)cc1`, the inhibition was 90.6%.

In the case of `O=C(O)c1ccc(Cl)c(NC(=O)C2CCCN2S(=O)(=O)c2cccc3nsnc23)c1` (centres undefined), the inhibition was -2.45%.

Regarding `Cn1cc([N+](=O)[O-])c(C(=O)NC2CCCCCCC2)n1`, the inhibition amounted to 8.92%.

In the case of `O=C(C1CCC(=O)N(C2CC2)C1)N1CCC(Oc2ccccc2F)CC1` (centres undefined), the inhibition came to 10.2%.

With `CC(C)C(=O)Nc1ccc(NC(=S)NC(=O)c2ccccc2F)cc1`, the inhibition was -4.04%.

In the case of `O=C(Nc1ccccc1)Nc1csc2ccccc12`, the inhibition came to 2.4%.

For `COc1ccc(-c2nnc(NC(=O)c3ccc(S(=O)(=O)N(C)CC4CCCO4)cc3)o2)c(OC)c1` (centres undefined), the inhibition came to 42.3%.

As to `COC(=O)c1cccc(NC(=O)CSc2nnc(C)n2Cc2ccccc2)c1`, the inhibition was found to be 0.33%.

As for `CCN1CCN(c2nc(-c3ccccc3Cl)nc3ccccc23)CC1`, the inhibition is -8.32%.

`O=C(c1ccc2[nH]c(=O)c(=O)[nH]c2c1)N1CCc2ccccc21`: the inhibition turned out to be 5.4%.

Regarding `Nc1nc(SCc2nc(-c3ccccc3)no2)[nH]c(=O)c1-c1ccccc1`, the inhibition amounted to 7.23%.

On to `O=S(=O)(c1ccc(Br)cc1)c1nc(-c2ccccc2)oc1NCCN1CCOCC1`, for which the inhibition was 6.21%.

With `COc1ccc(N2C(=O)NC(NS(=O)(=O)c3ccccc3)(C(F)(F)F)C2=O)cc1` (centres undefined), the inhibition is -5.61%.

Regarding `C#C[C@]1(O)CCC2C3CCC4=C/C(=N/OCC(=O)NC(C)C(=O)NC(CCSC)C(=O)O)CC[C@]4(C)C3CC[C@@]21C` (some centres undefined), the inhibition turned out to be 5.59%.

`CC1CC2(CCCCC2)Nc2ccc3ccccc3c21` (centres undefined): the inhibition amounted to 23.8%.

`O=C(Nc1nc2cc3c(cc2s1)OCCO3)c1ccc([N+](=O)[O-])o1`: the inhibition was determined as 99.5%.

On to `CC1(C)Cc2c(cnn2-c2ccccc2)C(NC(=O)CCc2ccc(=O)[nH]n2)C1` (centres undefined), for which the inhibition was -1.54%.

In the case of `CCOC(=O)CSc1nc2ccc(Nc3nc(N4CCOCC4)nc(N4CCOCC4)n3)cc2s1`, the inhibition was determined as 99.1%.

For `O=C(NN=C1CCCC1)c1cccs1`, the inhibition stood at 13.3%.

As to `Cc1coc2c(C)c3oc(=O)c(CCC(=O)N4CCC(C(=O)NCCCC(=O)O)(c5ccccc5)CC4)c(C)c3cc12`, the inhibition was 5.29%.

`Cc1cc(/C=N/NC(=O)CC#N)c(C)n1-c1ccc([N+](=O)[O-])cc1`: the inhibition worked out at 31.2%.

As to `Oc1c(C(c2cccs2)N2CCN(c3ccccc3)CC2)ccc2cccnc12` (centres undefined), the inhibition is 30.5%.

`Cn1nnnc1Sc1ncnc2scc(-c3ccc([N+](=O)[O-])cc3)c12`: the inhibition was determined as 96.2%.

Regarding `CCOc1cc(/C=C2\C(=N)N3N=CSC3=NC2=O)ccc1OS(=O)(=O)c1ccccc1`, the inhibition was -22.1%.

On to `COc1ccc2ccccc2c1/C=N/NC(=O)c1cccc(C)c1`, for which the inhibition was found to be 7.93%.

As to `Cc1cc(C)nc(/N=C(/NC(=O)Nc2ccc(Cl)c(Cl)c2)Nc2cccc(Cl)c2)n1`, the inhibition was -5.57%.

As to `C/C(CC(=O)NCc1ccco1)=N\NC(=O)CC#N`, the inhibition came to 34.6%.

On to `Cc1ccc(C)c(OCC(=O)Nc2ccccc2N2CCCC2)c1`, for which the inhibition worked out at 5.04%.

Take `Cc1ccccc1OCc1nc2ccccc2c(=O)n1/N=C/c1cn[nH]c1-c1ccc(Br)cc1`: the inhibition was 8.94%.

Take `COc1ccc(C(O)(C2CCCCC2)C(CN2CCCC2)c2ccccc2)cc1` (centres undefined): the inhibition stood at 5.23%.

As for `COc1cccc(CN2CCNC(=O)C2CC(=O)NCCCC2CCCC2)c1OC` (centres undefined), the inhibition came to 0.65%.

With `CNC(=O)COC(=O)c1[nH]c(C)c(C(C)=O)c1C`, the inhibition came out at 5.45%.

Turning to `Cc1nn(-c2ccccc2)c(Cl)c1/C=N/NC(=O)c1ccnn1C`, the inhibition is -0.48%.

Consider `Cc1ccc(C2=N/C(=C\c3cccc(F)c3)C(=O)O2)cc1`, for which the inhibition was 49.4%.

For the compound `CC(=O)N1c2ccc(S(=O)(=O)N(C)C3CCCCC3)cc2CC1C` (centres undefined), the inhibition was -9.51%.

Regarding `Cc1ccc(S(=O)(=O)N[C@@H](Cc2ccccc2)C(=O)N2CCC(C(=O)N[C@@H](CC(C)C)C(=O)O)CC2)cc1`, the inhibition is 7.98%.

`COc1ccc(-c2sc3cc(OC)c(OC)cc3c2C#CCCO)cc1`: the inhibition worked out at 71.3%.

In the case of `CSc1ncc(CN2CCC(C(=O)Nc3cccc(-c4cscn4)c3)CC2)cn1`, the inhibition turned out to be 4.95%.

Consider `Cc1nn(-c2ccc(N3CCCCC3)nn2)c(C)c1CCC(=O)Nc1ccc(F)cc1`, for which the inhibition amounted to 2.44%.

As for `CCOC(=O)c1nn(-c2ccc(C)cc2)c(C)c1C(C)=O`, the inhibition amounted to 2.39%.

Take `Cc1ccc(C(=O)N/C(=C\c2cccs2)C(=O)N2CCN(C)CC2)cc1C`: the inhibition came out at 0.74%.

As to `COc1cc(NC(=O)c2ccccc2F)c(OC)cc1NC(=O)CN1CCOCC1`, the inhibition is 16%.

`C[C@]12CCC(=O)C=C1CC[C@@H]1C2[C@H](O)C[C@]2(C)C(=O)CCC12` (some centres undefined): the inhibition was 2.16%.

For `O=C(CSc1nnc(NC(=O)c2ccccc2[N+](=O)[O-])s1)NCC1CCCO1` (centres undefined), the inhibition stood at 4.2%.

As for `COc1ccc(S(=O)(=O)N(C(=O)c2ccncc2)c2ccc3oc4c(c3c2)CCCC4)cc1`, the inhibition is -15%.

Take `O=C(NCC1CCCO1)c1cccc(NC(=O)c2ccc(Br)cc2)c1` (centres undefined): the inhibition is 2.75%.

Regarding `CCC/C(O)=C1\C(=O)CC(C)(C)CC1=NCc1ccccc1`, the inhibition stood at 30.1%.

For the compound `COc1ccccc1-c1cc(C(F)(F)F)nc(S(=O)(=O)CCCC(=O)O)n1`, the inhibition came to 11.4%.

Turning to `CC(=O)N1CCCN(C(=O)c2cc(COc3c(F)cccc3F)on2)CC1`, the inhibition came out at 3.59%.

As to `O=C(CSc1ccc(Cl)cc1)NC1=NN(c2ccccc2)C(=O)C1`, the inhibition is -2.07%.

For the compound `O=C(c1cc(-c2ccc(Cl)cc2)n[nH]1)N1CCN(C(=O)c2ccco2)CC1`, the inhibition came to 2.57%.

For the compound `CCOC(=O)c1[nH]c(C)c(C(=O)Nc2ccccc2C)c1C`, the inhibition is -5.73%.

Regarding `O=C(CN1CCCN(Cc2ccc(F)cc2)S1(=O)=O)NC1CCCC1`, the inhibition is -3.72%.

As to `CC1(C)CC(=O)C(C=NCCN2CCN(CCc3ccccc3)CC2)=C(O)C1`, the inhibition is -1.89%.

Take `CCc1ccc(C(=O)NC(=S)Nc2ccccc2N2CCOCC2)cc1`: the inhibition stood at 90.1%.

For the compound `Cc1ccccc1OCC(=O)Nc1ccccc1N1CCCCC1`, the inhibition worked out at 6.87%.

Turning to `Cc1ccc(-c2nc(NC(=O)c3nn(C)cc3[N+](=O)[O-])sc2C)cc1`, the inhibition was 0.94%.

Consider `CCc1c(C(=O)Nc2cc(C)cc(C)c2)[nH]c(C)c1C(C)=O`, for which the inhibition was -5.19%.

As to `CN(C)S(=O)(=O)N(CC(=O)Nc1ccccc1F)c1ccccc1`, the inhibition was 2.26%.

Take `COc1cc2c(cc1OC)C(c1ccccc1)N(C(=O)c1ccco1)CC2` (centres undefined): the inhibition came out at 7.12%.

For `Cc1cccc(N2CCN(CC3CCCCC3)CC2)c1C`, the inhibition turned out to be 28.8%.

Regarding `O=C1c2ccccc2C(=O)N1Cc1nc(-c2ccccc2)no1`, the inhibition turned out to be 6.13%.

On to `COC(=O)c1sccc1NC(=O)COc1ccc(Cl)cc1Cl`, for which the inhibition is 1.18%.

Consider `CCOC(=O)c1cc(C(=O)Nc2ccc(S(=O)(=O)Nc3ccc(OC)cc3)cc2)nn1C`, for which the inhibition worked out at 32.8%.

With `CCOC(=O)Cc1nc2ccccc2[nH]1`, the inhibition is 39%.

As to `CCOC(=O)N1CCN(CC(=O)Nc2nnc(C(F)(F)F)s2)CC1`, the inhibition was 55%.

For the compound `COc1ccc(CCNC(=O)c2cc(COc3c(F)cccc3F)on2)c(OC)c1`, the inhibition is -1.1%.

Regarding `Cc1nn2c(=O)cc(COC(=O)c3ccc(NC(=O)C(C)(C)C)cc3)nc2s1`, the inhibition was determined as 0.55%.

Turning to `COc1cc(CN2CCc3ccc(NC(=O)CCc4ccccc4OC)cc3C2)ccc1O`, the inhibition stood at 1.88%.

Take `Cn1c(=O)[nH]c(=O)c2c1nc(Br)n2CCCCSc1nc2ccccc2o1`: the inhibition was -10%.

In the case of `O=C(Nc1ccnn1C1CCN(Cc2ccc(O)c(Cl)c2)CC1)C1CCCC1`, the inhibition came to 1.52%.

These data come from PubChem BioAssay AID434955 (Southern Research Specialized Biocontainment Screening …, 2010).
